According to ChEMBL document CHEMBL1961873, “Compounds: GSK PKIS; Assays: Nanosyn kinase panel” (2012):
For some of these results: Most of the strong results are listed elsewhere, so they are rarer here than in the full data. Only a part is listed here, and it is no random draw.

How the values were obtained:
[1] = molecular target: RAF proto-oncogene serine/threonine-protein kinase (Homo sapiens) (UniProt P04049); conditions: at 1 µM;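 further: values are the mean percent inhibition of CRAF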
[2] = molecular target: T1, Interleukin-1 receptor-associated kinase 4 (Homo sapiens) (UniProt Q9NWZ3); conditions: at 0.1 µM
T1 sequence (whole entry): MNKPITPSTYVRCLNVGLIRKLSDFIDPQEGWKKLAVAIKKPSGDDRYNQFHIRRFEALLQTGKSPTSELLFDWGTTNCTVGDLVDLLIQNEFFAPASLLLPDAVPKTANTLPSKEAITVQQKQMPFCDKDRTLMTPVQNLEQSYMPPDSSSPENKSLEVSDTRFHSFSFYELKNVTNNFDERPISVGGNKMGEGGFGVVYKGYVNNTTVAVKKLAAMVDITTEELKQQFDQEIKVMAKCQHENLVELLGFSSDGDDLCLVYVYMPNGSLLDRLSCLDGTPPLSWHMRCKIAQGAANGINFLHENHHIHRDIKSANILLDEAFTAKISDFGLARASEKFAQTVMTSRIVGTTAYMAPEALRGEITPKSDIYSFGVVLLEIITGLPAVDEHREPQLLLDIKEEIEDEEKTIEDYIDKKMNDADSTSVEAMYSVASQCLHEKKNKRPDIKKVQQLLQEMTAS

[3] = molecular target: T1, Interleukin-1 receptor-associated kinase 4 (Homo sapiens); conditions: at 1 µM
[4] = molecular target: Leucine-rich repeat serine/threonine-protein kinase 2 (Homo sapiens) (UniProt Q5S007); conditions: at 0.1 µM
[5] = molecular target: Leucine-rich repeat serine/threonine-protein kinase 2 (Homo sapiens) (UniProt Q5S007); conditions: at 1 µM
[6] = tested on: Leucine-rich repeat serine/threonine-protein kinase 2 (Homo sapiens), Q5S007 [G2019S]; conditions: at 0.1 µM
[7] = tested on: Leucine-rich repeat serine/threonine-protein kinase 2 (Homo sapiens), Q5S007 [G2019S]; conditions: at 1 µM

UniProt Q5S007, sequence (Q5S007 whole entry): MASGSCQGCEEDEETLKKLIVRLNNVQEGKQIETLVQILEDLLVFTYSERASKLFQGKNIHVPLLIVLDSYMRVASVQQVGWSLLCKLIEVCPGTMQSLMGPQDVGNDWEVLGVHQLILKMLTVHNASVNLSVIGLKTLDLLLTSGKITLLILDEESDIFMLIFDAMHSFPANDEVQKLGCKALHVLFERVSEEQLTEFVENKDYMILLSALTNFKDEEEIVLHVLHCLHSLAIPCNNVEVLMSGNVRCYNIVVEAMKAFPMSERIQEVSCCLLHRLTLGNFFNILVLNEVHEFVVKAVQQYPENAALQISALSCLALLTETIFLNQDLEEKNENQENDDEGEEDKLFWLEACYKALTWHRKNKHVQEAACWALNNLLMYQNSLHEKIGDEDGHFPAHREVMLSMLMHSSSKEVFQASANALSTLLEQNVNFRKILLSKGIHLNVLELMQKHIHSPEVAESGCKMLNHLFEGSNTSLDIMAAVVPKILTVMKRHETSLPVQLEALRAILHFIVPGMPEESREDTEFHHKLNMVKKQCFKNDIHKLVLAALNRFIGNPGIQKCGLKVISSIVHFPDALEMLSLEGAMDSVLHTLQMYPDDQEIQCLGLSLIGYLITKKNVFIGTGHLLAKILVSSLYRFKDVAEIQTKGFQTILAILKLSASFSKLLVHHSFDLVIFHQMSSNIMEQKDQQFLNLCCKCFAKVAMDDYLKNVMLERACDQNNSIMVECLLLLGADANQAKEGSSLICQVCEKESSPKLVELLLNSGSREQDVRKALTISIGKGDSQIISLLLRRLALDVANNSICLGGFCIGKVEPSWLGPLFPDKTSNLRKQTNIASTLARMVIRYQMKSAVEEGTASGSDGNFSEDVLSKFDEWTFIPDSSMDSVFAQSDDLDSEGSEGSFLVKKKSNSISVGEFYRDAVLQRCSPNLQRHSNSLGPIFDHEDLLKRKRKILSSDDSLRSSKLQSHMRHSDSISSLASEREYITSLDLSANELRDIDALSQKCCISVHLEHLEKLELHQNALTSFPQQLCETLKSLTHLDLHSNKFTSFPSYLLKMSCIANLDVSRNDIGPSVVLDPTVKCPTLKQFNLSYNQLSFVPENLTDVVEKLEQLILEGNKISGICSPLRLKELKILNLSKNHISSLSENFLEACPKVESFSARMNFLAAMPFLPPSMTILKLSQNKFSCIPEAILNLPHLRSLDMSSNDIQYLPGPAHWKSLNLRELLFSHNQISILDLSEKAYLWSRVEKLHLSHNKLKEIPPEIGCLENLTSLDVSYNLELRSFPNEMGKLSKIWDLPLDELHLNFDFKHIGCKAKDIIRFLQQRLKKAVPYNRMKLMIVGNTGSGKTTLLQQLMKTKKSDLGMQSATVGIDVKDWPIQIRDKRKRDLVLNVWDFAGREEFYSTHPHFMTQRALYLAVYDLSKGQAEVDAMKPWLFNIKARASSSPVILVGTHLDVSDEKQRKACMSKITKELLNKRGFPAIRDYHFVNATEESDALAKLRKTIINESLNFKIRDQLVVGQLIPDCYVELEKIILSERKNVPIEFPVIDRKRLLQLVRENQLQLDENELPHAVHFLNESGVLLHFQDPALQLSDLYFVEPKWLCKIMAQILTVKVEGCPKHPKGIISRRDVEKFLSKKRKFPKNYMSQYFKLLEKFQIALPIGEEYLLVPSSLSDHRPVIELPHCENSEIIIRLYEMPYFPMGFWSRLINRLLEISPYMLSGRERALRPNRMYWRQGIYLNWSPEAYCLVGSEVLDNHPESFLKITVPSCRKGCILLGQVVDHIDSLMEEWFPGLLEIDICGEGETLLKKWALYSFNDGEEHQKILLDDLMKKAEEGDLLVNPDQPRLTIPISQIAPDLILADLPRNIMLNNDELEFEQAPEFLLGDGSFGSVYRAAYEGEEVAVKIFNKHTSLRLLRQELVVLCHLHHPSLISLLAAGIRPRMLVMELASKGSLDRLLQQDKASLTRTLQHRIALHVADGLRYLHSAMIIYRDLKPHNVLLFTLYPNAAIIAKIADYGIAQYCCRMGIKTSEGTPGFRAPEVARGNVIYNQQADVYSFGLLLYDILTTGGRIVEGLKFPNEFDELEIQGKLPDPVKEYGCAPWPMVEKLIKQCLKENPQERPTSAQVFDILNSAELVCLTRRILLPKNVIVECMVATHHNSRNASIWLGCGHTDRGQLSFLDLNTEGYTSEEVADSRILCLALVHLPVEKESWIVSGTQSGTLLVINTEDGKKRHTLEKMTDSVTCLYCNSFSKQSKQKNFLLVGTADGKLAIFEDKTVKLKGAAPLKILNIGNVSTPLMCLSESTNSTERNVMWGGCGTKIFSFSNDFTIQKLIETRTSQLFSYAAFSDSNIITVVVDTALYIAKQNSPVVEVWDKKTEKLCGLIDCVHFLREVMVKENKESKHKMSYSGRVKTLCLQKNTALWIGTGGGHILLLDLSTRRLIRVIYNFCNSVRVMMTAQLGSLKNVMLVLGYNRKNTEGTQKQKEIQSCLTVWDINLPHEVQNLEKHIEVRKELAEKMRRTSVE
UniProt P04049, sequence (P04049 whole entry): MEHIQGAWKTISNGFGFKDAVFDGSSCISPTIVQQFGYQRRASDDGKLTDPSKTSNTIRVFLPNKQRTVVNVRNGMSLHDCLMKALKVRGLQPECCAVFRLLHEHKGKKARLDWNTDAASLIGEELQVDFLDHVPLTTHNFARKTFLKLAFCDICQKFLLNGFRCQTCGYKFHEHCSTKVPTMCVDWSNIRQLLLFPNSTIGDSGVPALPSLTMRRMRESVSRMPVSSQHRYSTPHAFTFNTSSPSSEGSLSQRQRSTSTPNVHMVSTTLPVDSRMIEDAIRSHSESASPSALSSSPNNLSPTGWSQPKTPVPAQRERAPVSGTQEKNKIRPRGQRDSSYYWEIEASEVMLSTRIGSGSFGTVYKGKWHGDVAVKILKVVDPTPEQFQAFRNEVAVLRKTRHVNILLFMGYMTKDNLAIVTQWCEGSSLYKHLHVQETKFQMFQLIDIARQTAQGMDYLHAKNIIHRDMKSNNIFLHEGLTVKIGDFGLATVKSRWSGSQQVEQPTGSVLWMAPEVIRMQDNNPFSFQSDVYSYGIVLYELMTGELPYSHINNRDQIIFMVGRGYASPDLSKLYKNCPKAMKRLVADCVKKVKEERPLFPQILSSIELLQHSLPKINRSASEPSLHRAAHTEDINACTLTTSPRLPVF

Row | SMILES | inhibition [1] [%] | inhibition [2] [%] | inhibition [3] [%] | inhibition [4] [%] | inhibition [5] [%] | inhibition [6] [%] | inhibition [7] [%]
1 | NC(=O)CCc1ccccc1Oc1nccc(-c2c(-c3ccc(F)cc3)ncn2C2CCNCC2)n1 | -0.43 | -0.81 | -0.77 | -0.3 | -2.56 | 1.67 | 2.77
2 | O=C1NC(=O)C(c2ccccc2Cl)=C1Nc1cc(Cl)c(O)c(Cl)c1 | -3.29 | -4.26 | 0.97 | 5.19 | 19.4 | 2.18 | 15.9
3 | Cc1cccc(Oc2nccc(-c3c(-c4ccc(F)cc4)ncn3C3CCNCC3)n2)c1C | -2.91 | 0.99 | 1.42 | 3.93 | 5.9 | 6.1 | 6.11
4 | Fc1ccc(Oc2nccc(-c3c(-c4ccc(F)cc4)ncn3C3CCNCC3)n2)cc1 | 1.41 | 1.36 | 1.99 | -7.79 | -7.97 | -1.5 | -0.89
5 | O=C1NC(=O)C(c2ccccc2)=C1Nc1ccccc1 | 0.27 | 2.01 | 2.54 | 5.4 | 16 | 4.55 | 21.7
6 | Fc1ccc(-c2ncn(C3CCNCC3)c2-c2ccnc(Oc3ccc(Cl)cc3)n2)cc1 | -3.88 | 0.34 | 0.58 | 2.39 | 3.86 | 3.3 | 4.86
7 | COc1ccccc1Oc1nccc(-c2c(-c3ccc(F)cc3)ncn2C2CCNCC2)n1 | -2.08 | 2.05 | 2.51 | 5.39 | 10.7 | – | 9.79
8 | Fc1ccc(-c2ncn(C3CCNCC3)c2-c2ccnc(Oc3cccc(F)c3)n2)cc1 | -2.04 | 2.63 | 3.7 | 1.96 | 5.87 | 3.94 | 8.54
9 | Fc1ccc(-c2ncn(C3CCNCC3)c2-c2ccnc(Oc3cccc(C(F)(F)F)c3)n2)cc1 | 3.35 | 1.97 | 2.24 | 3.65 | 2.72 | 5.63 | 6.94
10 | O=C(O)c1ccc(Oc2nccc(-c3c(-c4ccc(F)cc4)ncn3C3CCNCC3)n2)cc1 | 1.09 | 2.29 | 2.96 | -0.02 | 4.54 | 5.67 | 7.17
11 | O=C1NC(=O)C(c2cccc([N+](=O)[O-])c2)=C1Nc1cc(Cl)c(O)c(Cl)c1 | 9.49 | 0.93 | 0.63 | 4.32 | 21 | 4.25 | 13.9
12 | CS(=O)(=O)c1ccc(Oc2nccc(-c3c(-c4ccc(F)cc4)ncn3C3CCNCC3)n2)cc1 | 0.92 | 1.58 | 2.09 | 0.64 | 1.79 | 1.98 | 3.86
13 | COc1ccccc1C1=C(Nc2ccccc2)C(=O)NC1=O | 7.07 | -2.94 | 2.37 | 6.94 | 19.8 | 7.96 | 43
14 | CC(C)(C)c1ccc(Oc2nccc(-c3c(-c4ccc(F)cc4)ncn3C3CCNCC3)n2)cc1 | 2.42 | 1.66 | 1.82 | 0.01 | 2.66 | 2.16 | 5
